Laboratory results reported in ChEMBL document CHEMBL1156685, “Synthesis and structure-activity relationships of N-6 substituted analogues of 9-hydroxy-4-phenylpyrrolo[3,4-c]carbazole-1,3(2H,6H)-diones as inhibitors of Wee1 and Chk1 checkpoint kinases” (Eur J Med Chem, 2008).

Each molecule was assayed against T1, Serine/threonine-protein kinase Chk1 (Homo sapiens, UniProt O14757).
T1 sequence (O14757 whole entry): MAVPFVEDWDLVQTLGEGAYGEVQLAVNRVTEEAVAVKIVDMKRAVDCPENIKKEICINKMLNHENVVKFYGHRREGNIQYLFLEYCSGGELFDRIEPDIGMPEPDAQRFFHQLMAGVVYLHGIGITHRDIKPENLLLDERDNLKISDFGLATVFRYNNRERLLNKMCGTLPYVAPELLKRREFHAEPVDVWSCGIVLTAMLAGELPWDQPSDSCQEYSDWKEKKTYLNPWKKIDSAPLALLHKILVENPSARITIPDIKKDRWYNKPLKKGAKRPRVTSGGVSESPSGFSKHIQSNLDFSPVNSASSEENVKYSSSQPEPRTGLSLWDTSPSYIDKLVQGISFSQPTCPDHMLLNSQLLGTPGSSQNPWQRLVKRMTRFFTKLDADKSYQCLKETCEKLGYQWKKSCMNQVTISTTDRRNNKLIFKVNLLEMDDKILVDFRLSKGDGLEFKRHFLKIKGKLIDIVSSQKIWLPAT
CN(C)CCNC(=O)CCn1c2ccc(O)cc2c2c3c(c(-c4ccccc4Cl)cc21)C(=O)NC3=O showed an IC50 of 53 nM. In the case of O=C1NC(=O)c2c1c(-c1c(Cl)cccc1Cl)cc1c2c2cc(O)ccc2n1CCn1ccnc1, the IC50 is reported as 3400 nM. Molecule O=C1NC(=O)c2c1c(-c1ccccc1Cl)cc1c2c2cc(O)ccc2n1CC(O)CO (centres undefined) has an IC50 of 77 nM. CNCCCn1c2ccc(O)cc2c2c3c(c(-c4c(Cl)cccc4Cl)cc21)C(=O)NC3=O showed an IC50 of 5 nM. O=C(O)CCn1c2ccc(O)cc2c2c3c(c(-c4ccccc4)cc21)C(=O)NC3=O showed an IC50 of 410 nM. Work on O=C1NC(=O)c2c1c(-c1c(Cl)cccc1Cl)cc1c2c2cc(O)ccc2n1CCCO yielded an IC50 of 410 nM. Molecule CN(C)CC(O)Cn1c2ccc(O)cc2c2c3c(c(-c4ccccc4Cl)cc21)C(=O)NC3=O (centres undefined) has an IC50 of 30 nM. Work on CN(C)CCn1c2ccc(O)cc2c2c3c(c(-c4ccccc4Cl)cc21)C(=O)NC3=O yielded an IC50 of 110 nM. O=C1NC(=O)c2c1c(-c1ccccc1)cc1c2c2cc(O)ccc2n1CCCNc1ccccc1 was tested, and the IC50 was 210 nM. With O=C1NC(=O)c2c1c(-c1ccccc1Cl)cc1c2c2cc(O)ccc2n1CCS(=O)(=O)c1nnc[nH]1 the IC50 was 77 nM. Molecule O=C1NC(=O)c2c1c(-c1c(Cl)cccc1Cl)cc1c2c2cc(O)ccc2n1CCCNc1ccccc1 has an IC50 of 730 nM. CN(C)CCCn1c2ccc(O)cc2c2c3c(c(-c4ccccc4)cc21)C(=O)NC3=O gave an IC50 of 21 nM. For CN1CCN(CCCn2c3ccc(O)cc3c3c4c(c(-c5ccccc5)cc32)C(=O)NC4=O)CC1, the IC50 was 200 nM. NC(=O)CCn1c2ccc(O)cc2c2c3c(c(-c4c(Cl)cccc4Cl)cc21)C(=O)NC3=O showed an IC50 of 360 nM. CN(C)CCCn1c2ccc(O)cc2c2c3c(c(-c4c(Cl)cccc4Cl)cc21)C(=O)NC3=O showed an IC50 of 96 nM. O=C(CCn1c2ccc(O)cc2c2c3c(c(-c4ccccc4Cl)cc21)C(=O)NC3=O)NS(=O)(=O)c1ccccc1 gave an IC50 of 8000 nM. For O=C1NC(=O)c2c1c(-c1ccccc1Cl)cc1c2c2cc(O)ccc2n1CCc1nnn[nH]1, the IC50 was 1400 nM. CS(=O)(=O)NC(=O)CCn1c2ccc(O)cc2c2c3c(c(-c4ccccc4Cl)cc21)C(=O)NC3=O showed an IC50 of 2500 nM. Work on O=C1NC(=O)c2c1c(-c1ccccc1Cl)cc1c2c2cc(O)ccc2n1CCn1ccnc1 yielded an IC50 of 270 nM. CN(C)CCn1c2ccc(O)cc2c2c3c(c(-c4ccccc4)cc21)C(=O)NC3=O was tested, and the IC50 was 54 nM. With O=C1NC(=O)c2c1c(-c1ccccc1)cc1c2c2cc(O)ccc2n1CCO the IC50 was 88 nM. Work on N#CCCn1c2ccc(O)cc2c2c3c(c(-c4ccccc4Cl)cc21)C(=O)NC3=O yielded an IC50 of 200 nM. Molecule NC(=O)CCn1c2ccc(O)cc2c2c3c(c(-c4ccccc4Cl)cc21)C(=O)NC3=O has an IC50 of 54 nM. O=C1NC(=O)c2c1c(-c1ccccc1)cc1c2c2cc(O)ccc2n1CCCn1ccnc1 was tested, and the IC50 was 36 nM. Molecule O=C1NC(=O)c2c1c(-c1ccccc1Cl)cc1c2c2cc(O)ccc2n1CC[S+]([O-])c1nnc[nH]1 (centres undefined) has an IC50 of 120 nM. In the case of CNCCCn1c2ccc(O)cc2c2c3c(c(-c4ccccc4)cc21)C(=O)NC3=O, the IC50 is reported as 2 nM. Molecule COC(=O)CCn1c2ccc(O)cc2c2c3c(c(-c4ccccc4Cl)cc21)C(=O)NC3=O has an IC50 of 200 nM. Work on CN(C)CCNC(=O)CCn1c2ccc(O)cc2c2c3c(c(-c4c(Cl)cccc4Cl)cc21)C(=O)NC3=O yielded an IC50 of 750 nM. Molecule CN(C)CCn1c2ccc(O)cc2c2c3c(c(-c4c(Cl)cccc4Cl)cc21)C(=O)NC3=O has an IC50 of 850 nM. Molecule O=C1NC(=O)c2c1c(-c1ccccc1)cc1c2c2cc(O)ccc2n1CCn1ccnc1 has an IC50 of 250 nM. NC(=O)CCn1c2ccc(O)cc2c2c3c(c(-c4ccccc4)cc21)C(=O)NC3=O was tested, and the IC50 was 35 nM. Molecule O=C(O)CCn1c2ccc(O)cc2c2c3c(c(-c4c(Cl)cccc4Cl)cc21)C(=O)NC3=O has an IC50 of over 10000 nM. CNCC(O)Cn1c2ccc(O)cc2c2c3c(c(-c4ccccc4Cl)cc21)C(=O)NC3=O (centres undefined) gave an IC50 of 3 nM. O=C1NC(=O)c2c1c(-c1ccccc1Cl)cc1c2c2cc(O)ccc2n1CCCc1nnn[nH]1 gave an IC50 of 630 nM. Work on O=C1NC(=O)c2c1c(-c1ccccc1Cl)cc1c2c2cc(O)ccc2n1CCCNc1ccccc1 yielded an IC50 of 4700 nM. In the case of O=C1NC(=O)c2c1c(-c1c(Cl)cccc1Cl)cc1c2c2cc(O)ccc2n1CCCn1ccnc1, the IC50 is reported as 1300 nM. Molecule O=C1NC(=O)c2c1c(-c1ccccc1Cl)cc1c2c2cc(O)ccc2n1CCSc1nnc[nH]1 has an IC50 of 420 nM. Work on O=C1NC(=O)c2c1c(-c1ccccc1)cc1c2c2cc(O)ccc2n1CCCO yielded an IC50 of 59 nM. O=C1NC(=O)c2c1c(-c1ccccc1Cl)cc1c2c2cc(O)ccc2n1CCCn1ccnc1 was tested, and the IC50 was 55 nM.
